In PubChem BioAssay AID360 (National Center for Advancing Translational Sciences (NCATS), 2006):
Screen size: about 48,000 compounds; about 550 (1.1%) were called active. Another 4% or so got no clear call; they are omitted. Rule as the data show it: active = potency below about 15 µM; inconclusive = mostly about 16 µM to 33 µM; inactive = weaker than that. The list shows a part of the results.

Target: Lysosomal acid glucosylceramidase (Homo sapiens) (UniProt P04062)
Test: Glucocerebrosidase;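 also: the screen sought inhibitors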
Conditions: purified enzyme, resorufin glucoside fluorescence (screen aimed at inhibitors), 20 min; series mostly up to 77 µM
Summary of the method: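 Normal human glucocerebrosidase (0.2 nM final) was assayed with resorufin β-D-glucopyranoside (30 uM final) in 50mM citric acid/KH2PO4, 10mM sodium taurocholate, 0.01% tween-20, pH 5.9. Compounds were titrated; fluorescence (Ex 548, Em 600) read after 20 min at RT.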
Potency is read from the fitted curve at half-maximal effect.

UniProt P04062, sequence (P04062 whole entry, looked up): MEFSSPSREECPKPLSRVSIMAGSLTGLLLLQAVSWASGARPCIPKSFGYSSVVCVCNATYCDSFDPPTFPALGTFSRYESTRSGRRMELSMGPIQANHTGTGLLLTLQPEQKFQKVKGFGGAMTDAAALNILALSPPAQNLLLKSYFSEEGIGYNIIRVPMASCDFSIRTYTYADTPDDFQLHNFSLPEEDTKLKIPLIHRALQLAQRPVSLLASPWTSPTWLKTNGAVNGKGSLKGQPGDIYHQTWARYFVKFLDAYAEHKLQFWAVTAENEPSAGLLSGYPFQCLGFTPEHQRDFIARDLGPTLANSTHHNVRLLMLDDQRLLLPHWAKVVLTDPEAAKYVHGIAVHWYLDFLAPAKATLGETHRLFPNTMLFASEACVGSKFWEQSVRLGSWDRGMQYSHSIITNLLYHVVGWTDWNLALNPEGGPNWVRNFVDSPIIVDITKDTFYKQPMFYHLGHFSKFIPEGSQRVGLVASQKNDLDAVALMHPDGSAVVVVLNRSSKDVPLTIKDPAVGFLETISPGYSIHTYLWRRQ

| SMILES | Potency |
| --- | --- |
| O=C(CCn1c(=O)[nH]c2ccsc2c1=O)N1CCc2ccccc2C1 | inactive: > 76.9 µM |
| COc1ccccc1CN1CC(C(=O)NCC2CCCO2)CC1=O (configuration not stated) | inactive: > 76.9 µM |
| O=S(=O)(c1ccccc1)n1nc(-c2ccccc2)nc1NCc1ccco1 | inactive: > 76.9 µM |
| COc1ccc(/C(O)=C2/C(=O)C(=O)N(CCCC(=O)O)C2c2ccc(OC)c(OC)c2)cc1 (configuration not stated) | inactive: > 76.9 µM |
| CN1CCN(/C=C2\SC(=S)NC2=O)CC1 | inactive: > 76.9 µM |
| CCCCCC(=O)Nc1ccc(Cl)cn1 | inactive: > 76.9 µM |
| CCc1c(C)c2ccc(OCC(=O)OC(C)C)c(C)c2oc1=O | inactive: > 76.9 µM |
| Cc1nn(-c2ccccc2)c(C)c1C(=O)OCC(=O)N1CC(=O)Nc2ccccc21 | inactive: > 76.9 µM |
| CCC1(C)CC(=O)N(c2ccc(C(=O)O)c(O)c2)C1=O (configuration not stated) | inactive: > 76.9 µM |
| CCn1c(NCc2cccs2)nc2ccccc21 | inactive: > 76.9 µM |
| CC(C)CCn1c(=S)[nH]c2ncccc2c1=O | inactive: > 76.9 µM |
| COc1cc(OC)cc(C(=O)NCc2n[nH]c(=S)n2-c2ccccc2)c1 | inactive: > 76.9 µM |
| CC(CCc1ccccc1)NC(=O)COC(=O)C1=COCCO1 (configuration not stated) | inactive: > 76.9 µM |
| COC(=O)c1cccc(COC(=O)c2ccccc2NC(=O)c2ccco2)c1 | inactive: > 76.9 µM |
| O=C(Oc1cccc2c(O)cccc12)c1ccccc1 | inactive: > 76.9 µM |
| COc1ccc(-c2ccnc(SCC(=O)N3CCOCC3)n2)cc1 | inactive: > 76.9 µM |
| CC1CCN(c2nc3c(c(=O)n(C)c(=O)n3C)n2CCSc2nc3ccccc3s2)CC1 | inactive: > 76.9 µM |
| COC(=O)CSc1nnc(-c2ccc(S(=O)(=O)NCc3cccs3)cc2)o1 | inactive: > 76.9 µM |
| Cc1ccccc1Cn1nc(C)c(NC(=O)c2cc(-c3cccs3)on2)c1C | inactive: > 76.9 µM |
| Cc1[nH]c2ccc(CNS(=O)(=O)c3ccc(S(=O)(=O)N4CCOCC4)cc3)cc2c1C | inactive: > 76.9 µM |
| CCOC(=O)/C=C1\SCC(=O)N1CC(=O)c1ccc[nH]1 | inactive: > 76.9 µM |
| O=C(CSc1nc2ccccc2o1)Nc1ccc(N2CCOCC2)c(Cl)c1 | inactive: > 76.9 µM |
| c1ccc2sc(N3CCN(Cc4nnnn4CC4CCCO4)CC3)nc2c1 (configuration not stated) | inactive: > 76.9 µM |

| SMILES | Potency |
| --- | --- |
| COc1ccc(-c2nc(C)sc2CC(=O)O)cc1 | inactive: > 76.9 µM |
| Cn1c(=O)c2c(nc(NCc3ccccc3)n2CC(=O)NCc2ccccc2)n(C)c1=O | inactive: > 76.9 µM |
| CCOC(=O)Cc1c[nH]c2ccccc12 | inactive: > 76.9 µM |
| O=C(O)c1cn(-c2ccccc2)nc1-c1ccncc1 | inactive: > 76.9 µM |
| Cc1cc(C)n(C(=O)c2ccncc2)n1 | inactive: > 76.9 µM |
| CC(C)[C@H](NC(=O)[C@@H]1CSCN1C(=O)OC(C)(C)C)C(=O)NCC1CCC(C(=O)O)CC1 (some centres not stated) | inactive: > 76.9 µM |
| Cc1ccc(-c2nnc(N3CCN(c4ccccn4)CC3)c3ccccc23)cc1 | inactive: > 76.9 µM |
| COc1cc2c(cc1OC)C(COc1ccc3c(C)cc(=O)oc3c1)N(C(=O)c1ccco1)CC2 (configuration not stated) | inactive: > 76.9 µM |
| COc1ccc(OC)c(-c2nnc(SCC(=O)N3CCOCC3)o2)c1 | inactive: > 76.9 µM |
| COc1ccccc1-n1nnnc1SCC(=O)Nc1cc(C)on1 | inactive: > 76.9 µM |
| O=C(C1CCCO1)N1CCN(Cc2nc3ccccc3c(=O)[nH]2)CC1 (configuration not stated) | inactive: > 76.9 µM |
| CC(C)(O)C#CC#CCN1CCOCC1 | inactive: > 76.9 µM |
| Cc1cc2c(ccc3[nH]onc32)n1 | inactive: > 76.9 µM |
| COC(=O)c1nnn(Cc2ccccc2)c1N | inactive: > 76.9 µM |
| c1ccc(OCCCc2nc(-c3cccnc3)no2)cc1 | inactive: > 15.4 µM |
| CC1C(=O)C(C)C(c2ccco2)NC1c1ccco1 (configuration not stated) | inactive: > 76.9 µM |
| C=CCNC(=O)c1sc(=S)n(-c2ccc(C(=O)OCC)cc2)c1N | inactive: > 76.9 µM |
| CCOC(=O)c1oc2ccccc2c1NC(=O)c1ccc(S(=O)(=O)N(C)C)cc1 | inactive: > 76.9 µM |
| COc1ccc(C(=O)NCC(=O)OCC(=O)NC(=O)NC2CCCCC2)cc1OC | inactive: > 76.9 µM |
| O=C(Nc1ccc2nn(-c3ccccc3)nc2c1)c1ccc2c(c1)OCO2 | inactive: > 76.9 µM |
| CCCCCCOc1ccc(OCC(O)CN2C(=O)NC(C)(C)C2=O)cc1 (configuration not stated) | inactive: > 76.9 µM |
| c1ccc2c(c1)ncn2Cc1nnc2sc(-c3ccc4c(c3)OCO4)nn12 | inactive: > 76.9 µM |
| COc1cc(CN2CCN(S(=O)(=O)c3ccc(NC(C)=O)cc3)CC2)cc(OC)c1O | inactive: > 76.9 µM |

| SMILES | Potency |
| --- | --- |
| Cn1c(=O)c2[nH]c(-c3cccnc3)nc2n(C)c1=O | inactive: > 76.9 µM |
| Cc1cccc(-n2ccnc2SCC(=O)Nc2cc(C)on2)c1 | inactive: > 76.9 µM |
| CCN(CC)S(=O)(=O)c1cccc(-c2nnc(SCc3ncc(-c4ccccc4)o3)n2C)c1 | inactive: > 76.9 µM |
| Cn1cnnc1SC(C(=O)c1ccccc1)c1ccccc1 (configuration not stated) | inactive: > 76.9 µM |
| COc1cc2c(cc1OC)C(c1cc3cc(OC)c(OC)cc3[nH]c1=O)N(C(=O)C1CC1)CC2 (configuration not stated) | inactive: > 76.9 µM |
| COc1ccc(NC(=O)CSc2nnc(-c3ccc(C)cc3)n2N)cc1 | inactive: > 76.9 µM |
| Clc1ccc(C2=CSC3=NCCN23)cc1Cl | inactive: > 76.9 µM |
| O=c1cc(C23CC4CC(CC(C4)C2)C3)[nH][nH]1 | inactive: > 76.9 µM |
| COC(=O)c1ccccc1NC(=O)c1ccccc1SC | inactive: > 76.9 µM |
| CCOC(=O)CSc1nnc(-c2ccc(OC)cc2)n1CC | inactive: > 76.9 µM |
| c1ccc(Oc2cccc(OCCn3cncn3)c2)cc1 | inactive: > 76.9 µM |
| O=C(CCS(=O)(=O)c1ccc(Br)s1)NCc1cccs1 | inactive: > 76.9 µM |
| c1cc2nnnn2nc1N1CCCCC1 | inactive: > 76.9 µM |
| CN(C)c1cccc(C(=O)n2cc(C(=O)c3cc(F)ccc3O)cn2)c1 | inactive: > 76.9 µM |
| CN(Cc1cc2ccccc2[nH]c1=O)S(=O)(=O)c1ccccc1 | inactive: > 76.9 µM |
| Cc1cc(C)c2[nH]c(=O)c(CN(Cc3nnnn3C3CCCC3)C3CCCCC3)cc2c1 | inactive: > 76.9 µM |
| COc1ccc(OC)c(C2C(C(=O)c3cc4ccccc4o3)=C(O)C(=O)N2c2cc(C)on2)c1 (configuration not stated) | inactive: > 76.9 µM |
| CCCn1c(=NC(=O)c2ccncc2)c(C#N)cc2c(=O)n3cccc(C)c3nc21 | inactive: > 76.9 µM |
| O=C(O)Cn1nc(C(F)(F)F)c2c1CCC2 | inactive: > 76.9 µM |
| Cc1nn(CC(=O)O)c(C)c1C | inactive: > 76.9 µM |
| O=C(NCCc1ccccc1)NC1CCCCC1 | inactive: > 76.9 µM |
| CC(=O)NC1CCC(C(=O)O)(c2ccccc2)C1 (configuration not stated) | inactive: > 76.9 µM |
| CC(=O)Nc1ccc(NC(=O)Cn2cc3c(n2)CCCC3)cc1 | inactive: > 76.9 µM |

| SMILES | Potency |
| --- | --- |
| CC(C)[C@H](NC(=O)CCn1nnc2ccccc2c1=O)C(=O)O | inactive: > 76.9 µM |
| O=C(Nc1nccs1)C1C2CC3OC(=O)C1C3C2 (configuration not stated) | inactive: > 76.9 µM |
| Cc1csc(NC(=O)CSc2nc3ccccc3c(=O)[nH]2)n1 | inactive: > 76.9 µM |
| CC(C)CN(CC(C)C)C(=O)C12CCC(C)(C(=O)C1)C2(C)C (configuration not stated) | inactive: > 76.9 µM |
| O=C(Nc1ccc(N2CCCC2)cc1)c1cccc(F)c1 | inactive: > 76.9 µM |
| CCOC(=O)N1CCc2c(sc3c2C(=O)NC(c2ccccc2)N3)C1 (configuration not stated) | active: 4.02 µM |
| O=c1[nH]c(CN2CCC(c3nc4ccccc4s3)CC2)nc2sc3c(c12)CCC3 | inactive: > 76.9 µM |
| CCOn1c(=O)c(-c2ccc(OC)cc2)[n+]([O-])c2ccccc21 | inactive: > 76.9 µM |
| O=P(O)(O)c1ccccc1OCCCCCOc1ccccc1P(=O)(O)O | inactive: > 76.9 µM |
| Cc1ccccc1NC(=O)C1CCN(c2cnccn2)CC1 | inactive: > 76.9 µM |
| CCCN(CCC)C(C(=O)Nc1cccc(OC)c1)c1ccccc1 (configuration not stated) | inactive: > 76.9 µM |
| Cc1cc(C(F)F)n2ncc(C(=O)NCc3ccccc3)c2n1 | inactive: > 76.9 µM |
| CC(=O)Nc1ccc(OCC(O)Cn2nc(C)nc2C)cc1 (configuration not stated) | inactive: > 76.9 µM |
| O=c1nc2n(c3sc4c(c13)CCC4)Cc1ccccc1-2 | inactive: > 76.9 µM |
| CCN(C(=O)c1c(OC)cccc1OC)c1nnc(-c2cccnc2)s1 | inactive: > 76.9 µM |
| CCCc1ccc(OCc2ccc(C(=O)N3CCN(c4ccccn4)CC3)o2)c(OC)c1 | inactive: > 76.9 µM |
| CCC(C)[C@H](NC(=O)N1CCCC1)C(=O)O (some centres not stated) | inactive: > 76.9 µM |
| CCOc1ccc(S(=O)(=O)n2cnc3cc(C)c(C)cc32)cc1 | inactive: > 76.9 µM |
| Cc1ccc(S(=O)(=O)c2cc3c(=O)n4ccccc4nc3n(Cc3ccco3)c2=N)cc1C | inactive: > 76.9 µM |
| COc1ccc(S(=O)(=O)N2CCN(C(=O)COc3ccc4c(C)cc(=O)oc4c3)CC2)cc1 | inactive: > 76.9 µM |
| COc1cc(C2N(c3cc(C)on3)C(=O)C3CCCN32)cc(OC)c1OC (configuration not stated) | inactive: > 76.9 µM |
| COc1cc(C2C(C#N)=C(N)Oc3c2oc(CO)cc3=O)ccc1OC(C)C (configuration not stated) | inactive: > 76.9 µM |
| C=C(C)Cn1c(CCNC(=O)C(C)(C)C)nc2ccccc21 | inactive: > 76.9 µM |
